This is one part of the list.

For 14 molecules, binding signal results are on record in article PMC12136788.

B1: chr5:76988818:76988819:+_ENSMUSG00000036435_ENSMUST00000113493|mus_hu|FALSE|FALSE (ssRNA)
RNA: GGGAGUUCUACAGUCCGACGAUCUCCAUCCAGGUCCUCUGCUUCAGCCAUAGUUCCAGGCAUACUUUGAUGUUGCUGUAGUUUGAAAAAUUUACUUAUGAAGUCCUGUUCUGCCAGACAUAGGGGCUCCAGUUCACUUAGUACCAACAGAGGAUUGAGCAUCA
B2: chr17:57759754:57759755:+_ENSG00000141367_ENST00000269122|hu_mus|FALSE|FALSE (ssRNA)
RNA: GGGAGUUCUACAGUCCGACGAUCAUCAUAACAACGGUCACCAACUUGCUGAAUAUGAGCAUUAUUUGGCCCAUUGAUGAACUCUUCUAAUUCUGCAAGGCGGUUUGUUUUAGCCAGUGCAAAUAUCAAUUCUGUCUCCACAUACAACAGAGGAUUGAGCAUCA
B3: chr2:217001844:217001845:+_ENSG00000079246_ENST00000392132|hu_mus|FALSE|FALSE (ssRNA)
RNA: GGGAGUUCUACAGUCCGACGAUCACCAACUUGAGGAUUAGAUCUUUUGUCAUAAGCAUAUCGGACGAUGGCGACCAUGUUUAACUCAUCCAAAGCAUGAACGAGAGAGGAAAGGGCAACAGCUGCCGCCUCAUCAUCCUUUGCCAACAGAGGAUUGAGCAUCA
B4: chr2:48026839:48026840:+_ENSG00000116062_ENST00000540021|hu_hu|hu_hu_hu_mus_False|1_68 (ssRNA)
RNA: GGGAGUUCUACAGUCCGACGAUCAUAGUGAGCCACUAGCGUCCUAAAUCUGGAACAGUGGCGGUCAUCUGAAAACUGGCCGAUGAAAAACUUGCCCAGUGAAGUGUCCACAAAGCAAACACCAUACACACGAGUGUGGCCAGACAACAGAGGAUUGAGCAUCA
B5: 64816808_64818420_1693_CDS_ENSG00000184575_ENST00000332707|human|control|control (ssRNA)
RNA: GGGAGUUCUACAGUCCGACGAUCCAGUUGUUUUCUAUAUUCUACAAACAUGGCUUCAUCUUCACCCUCAUUUUCAAAGUUAUAUUCUUCAUCGUAAGUCAAUUUUUUCAUAACGGCCAACAUGAUUGCCUCUACAUUAGCUUUCAACAGAGGAUUGAGCAUCA
B6: chr6:124696998:124696999:-_ENSMUSG00000004263_ENSMUST00000088357|mus_hu|FALSE|FALSE (ssRNA)
RNA: GGGAGUUCUACAGUCCGACGAUCAGCCUGGGAUGGGAGAGAAGGCUGAGUAUACUUGGGGGGCUGAUUGGAGACAGAGAGGCUUGUUGGGGGAGGGAAAGAGUGGGGGUAGCUGGGCAAUGCCUGGGAAGCUGGGAAGGGGGACAACAGAGGAUUGAGCAUCA
B7: chr12:3264740:3264741:-_ENSMUSG00000020671_ENSMUST00000021001|mus_mus|motif|central (ssRNA)
RNA: GGGAGUUCUACAGUCCGACGAUCCCAUAUCUGUAGCUUGAUCUUCUUUCCUUGUAGUUCCACUGUUUUGAUCUUAAAGUCGGUUCCGGUGGUGGAAAUAAAGGUGGUAUUGAAGGCAUCGUCCGAAAAACGAAAAAGGACGCACAACAGAGGAUUGAGCAUCA
B8: chr12:103221452:103221453:+_ENSMUSG00000041781_ENSMUST00000047357|mus_mus|FALSE|FALSE (ssRNA)
RNA: GGGAGUUCUACAGUCCGACGAUCAUACACAGGAAUUGUUGCAUAGAUGGCACAGUUUAGACCCAGCUUCCCCACGGCGAAUGGGAGGGCACCGAGGUGGAGUGGAUCAGGAUGAGACAGGAGCACUGCAUCGAUCUGGUGAACCAACAGAGGAUUGAGCAUCA
B9: chr5:144470944:144470945:+_ENSMUSG00000018001_ENSMUST00000116456|mus_hu|motif|central (ssRNA)
RNA: GGGAGUUCUACAGUCCGACGAUCAUCAUUGAAUAACAGACACUCCAGAAAUCAACAGAUGUACAUUAUUUACAUAUUACGGUAUUUACCGCAAAUAGAAAUAUUUUCUAAGAAAAAAAGUCAAUUUGUGGUUUCUGGUCUACCCAACAGAGGAUUGAGCAUCA
B10: chr8:104439394:104439395:+_ENSG00000164934_ENST00000297579|hu_hu|FALSE|FALSE (ssRNA)
RNA: GGGAGUUCUACAGUCCGACGAUCACUGUCAAAUCCCCAGGUCAUUGAACAUAUAGGAUUAGUUCUUUGUUCAUCCCAAAUGUCUACUUGCUGUCCACAUGUGGCAAAAACAGCUUCUUUCCAGUGAUGAUCAAUCCCAGUAUACAACAGAGGAUUGAGCAUCA
B11: 204309604_204309724_2002_3pUTR_ENSG00000173166_ENST00000319170|human|control|control (ssRNA)
RNA: GGGAGUUCUACAGUCCGACGAUCCCAACUGAGUGCCUCGUUUCCAGGCUUCAGAGAAUACGGAGCUCACAAUGCUCUGGGAACGGACGUGUCCUGCUGGCUGGGUGUCAGAAACUCCGCUAUCAGACUGAUUGGAGUGGUUUGCAACAGAGGAUUGAGCAUCA
B12: 89122016_89122915_1152_CDS_ENSMUSG00000069539_ENSMUST00000174252|mouse|control|control (ssRNA)
RNA: GGGAGUUCUACAGUCCGACGAUCUGGAGUUACAUUUAACAACAGUUUUACGUGUUCACGAACUUCCUCGGGUAUACUGGUCAGUGAACUAGAUCCUAAACGACUCAACUGAUCCAGUUGUCUACUGAAGCUCUUGUAAAUGUCCAACAGAGGAUUGAGCAUCA
B13: chr7:6442117:6442118:+_ENSG00000136238_ENST00000348035|hu_mus|FALSE|FALSE (ssRNA)
RNA: GGGAGUUCUACAGUCCGACGAUCACAAAAACUUGGCAUCAAAUGCGAAGGCUCGCUGAUUUUUGAGCAAAGCGUACAAAGGUUCCAGGCAGGACCGAGAACGAGGGGCUCCGACAUUUACAACAGCAGGCAUUUUCUCUUCCUCAACAGAGGAUUGAGCAUCA
B14: 49027197_49030409_1962_CDS_ENSG00000139687_ENST00000267163|human|control|control (ssRNA)
RNA: GGGAGUUCUACAGUCCGACGAUCUGCAUUUGCAGUAGAAUUUACACGCGUAGUUGAACCUUUUUUCUUUGGAGAUCUUACAGGAGAAAGAUACAUAUCUGCUGCAGUGUGAUUAUUCUGGAGAGGAAGAUUAAGAGGACAAGCCAACAGAGGAUUGAGCAUCA

The assay concerns the target T1, UNK ZnF1-3 (human, UniProt Q9C0B0 31-174).
T1 sequence: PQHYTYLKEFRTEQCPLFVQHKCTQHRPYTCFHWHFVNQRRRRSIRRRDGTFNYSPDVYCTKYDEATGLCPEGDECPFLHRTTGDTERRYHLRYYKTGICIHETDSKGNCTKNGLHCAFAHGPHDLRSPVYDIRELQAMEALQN
Put plainly: nsRBNS (natural sequence RNA bind-n-seq); RBNS binding buffer (assumed for nsRBNS): 25 mM Tris pH 7.5, 150 mM KCl, 3 mM MgCl2, 0.01% Triton X-100, 500 ug/ml BSA, 20 U/ml SUPERase-In, 4 C; UNK is unkempt and MSI1 is Musashi-1; names of the RNAs are library labels; protein concentration not given here; high values mean tight binding.
Turning to B1, the binding signal came to 1.24 enrichment R.
For the molecule B2, the binding signal was 0.871 enrichment R.
Molecule B3 gave a binding signal of 1.94 enrichment R.
As for B4, the figure is 1.06 enrichment R.
For B5 the value was 0.852 enrichment R; for B6, 2.86 enrichment R.
Turning to B7, the binding signal worked out at 1.13 enrichment R.
B8 gave a binding signal of 1.23 enrichment R.
For the molecule B9, the binding signal came out at 1.11 enrichment R.
As for B10, the figure is 0.804 enrichment R; as for B11, 1.12 enrichment R; as for B12, 0.378 enrichment R.
Turning to B13, the binding signal came to 1.37 enrichment R.
B14 had a binding signal of 1.78 enrichment R.
